Source: patent US5807535A, “Metal complexes of hydroxyaryl containing aminocarboxylic acid chelating agents” (Australian Nuclear Science & Technology Organisation, priority 1992, dated 1998)
Further values from the same series stand in other lists.

Experiment: Biodistribution of 67Ga complexes in mice
Assay type: in vivo, balb/c mice
Method: To ligand (50 μL, 10 mg/mL, 0.2 M NaOAc, […]) was added ^67 Ga citrate (18.5 MBq) and the resultant mixture diluted to 1 mL (0.2 M NaOAc, pH 7). The pH was adjusted to 12 with 1 M NaOH (20 μL) and heated at 40° C. for 40 min. The final volume was adjusted (to 5 mL) with saline and sterilised by filtering through a 0.22 μm filter.
Each animal was injected via tail vein with ^67 Ga complex (100 μL, ~3.7×10^5 Bq). Animals were sacrificed at various time intervals (5 animals per time point/6 time points). Data are illustrated in FIG. 26-30 and in Tables 13-17.
Each ^67 Ga-ligand complex has been evaluated in balb/c mice. […] (see FIG. 26-30).

O=C(O)CN(CCN(CC(=O)O)CC(=O)Nc1ccccc1O)CC(=O)Nc1ccccc1O [Compound 1]
biodistribution bladder (1 min): 0.08 % ID
biodistribution blood (1 min): 16.86 % ID
biodistribution caecum (1 min): 0.45 % ID
biodistribution colon (1 min): 0.53 % ID
biodistribution duodenum (1 min): 0.12 % ID
biodistribution heart (1 min): 0.41 % ID
biodistribution ileum (1 min): 0.25 % ID
biodistribution jejunum (1 min): 1.27 % ID
biodistribution lungs (1 min): 1.28 % ID
biodistribution ovaries (1 min): 0.07 % ID
biodistribution pancreas (1 min): 0.35 % ID
biodistribution salivary gl (1 min): 0.16 % ID
biodistribution stomach GL (1 min): 0.36 % ID
biodistribution stomach SQ (1 min): 0.08 % ID
biodistribution tail (1 min): 1.13 % ID
biodistribution bladder (3 min): 0.11 % ID
biodistribution blood (3 min): 9.81 % ID
biodistribution caecum (3 min): 0.26 % ID
biodistribution colon (3 min): 0.43 % ID
biodistribution duodenum (3 min): 0.09 % ID
biodistribution heart (3 min): 0.19 % ID
biodistribution ileum (3 min): 0.13 % ID
biodistribution jejunum (3 min): 0.69 % ID
biodistribution lungs (3 min): 0.83 % ID
biodistribution ovaries (3 min): 0.06 % ID
biodistribution pancreas (3 min): 0.16 % ID
biodistribution salivary gl (3 min): 0.11 % ID
biodistribution stomach GL (3 min): 0.19 % ID
biodistribution stomach SQ (3 min): 0.08 % ID
biodistribution tail (3 min): 1.50 % ID
biodistribution bladder (5 min): 0.09 % ID
biodistribution blood (5 min): 7.82 % ID
biodistribution caecum (5 min): 0.22 % ID
biodistribution colon (5 min): 0.37 % ID
biodistribution duodenum (5 min): 0.17 % ID
biodistribution heart (5 min): 0.15 % ID
biodistribution ileum (5 min): 0.11 % ID
biodistribution jejunum (5 min): 0.73 % ID
biodistribution lungs (5 min): 1.11 % ID
biodistribution ovaries (5 min): 0.07 % ID
biodistribution pancreas (5 min): 0.11 % ID
biodistribution salivary gl (5 min): 0.10 % ID
biodistribution stomach GL (5 min): 0.21 % ID
biodistribution stomach SQ (5 min): 0.11 % ID
biodistribution tail (5 min): 1.95 % ID
biodistribution bladder (10 min): 0.09 % ID
biodistribution blood (10 min): 3.52 % ID
biodistribution caecum (10 min): 0.17 % ID
biodistribution colon (10 min): 0.21 % ID
biodistribution duodenum (10 min): 0.24 % ID
biodistribution heart (10 min): 0.08 % ID
biodistribution ileum (10 min): 0.18 % ID
biodistribution jejunum (10 min): 1.73 % ID
biodistribution lungs (10 min): 0.46 % ID
biodistribution ovaries (10 min): 0.03 % ID
biodistribution pancreas (10 min): 0.07 % ID
biodistribution salivary gl (10 min): 0.07 % ID
biodistribution stomach GL (10 min): 0.18 % ID
biodistribution stomach SQ (10 min): 0.10 % ID
biodistribution tail (10 min): 1.48 % ID
biodistribution bladder (30 min): 0.03 % ID
biodistribution blood (30 min): 0.78 % ID
biodistribution caecum (30 min): 0.06 % ID
biodistribution colon (30 min): 0.08 % ID
biodistribution duodenum (30 min): 0.06 % ID
biodistribution heart (30 min): 0.01 % ID
biodistribution ileum (30 min): 0.11 % ID
biodistribution jejunum (30 min): 2.99 % ID
biodistribution lungs (30 min): 0.12 % ID
biodistribution ovaries (30 min): 0.01 % ID
biodistribution pancreas (30 min): 0.02 % ID
biodistribution salivary gl (30 min): 0.01 % ID
biodistribution stomach GL (30 min): 0.04 % ID
biodistribution stomach SQ (30 min): 0.02 % ID
biodistribution tail (30 min): 1.06 % ID
biodistribution bladder (120 min): 0.01 % ID
biodistribution blood (120 min): 0.35 % ID
biodistribution bone (120 min): 0.42 % ID
biodistribution caecum (120 min): 0.88 % ID
biodistribution colon (120 min): 0.24 % ID
biodistribution duodenum (120 min): 0.02 % ID
biodistribution heart (120 min): 0.01 % ID
biodistribution ileum (120 min): 0.66 % ID
biodistribution jejunum (120 min): 0.85 % ID
biodistribution lungs (120 min): 0.04 % ID
biodistribution ovaries (120 min): 0.00 % ID
biodistribution pancreas (120 min): 0.01 % ID
biodistribution salivary gl (120 min): 0.01 % ID
biodistribution stomach GL (120 min): 0.03 % ID
biodistribution stomach SQ (120 min): 0.02 % ID
biodistribution tail (120 min): 0.10 % ID
